The campaign covered roughly 360,000 compounds. About 7,500 (2.1%) were called active. Inconclusive means that the source gave no clear call. Such entries were picked first, then a sample of the others. Calls come from the whole dose curve; as a rule, active = well fitted cell-killing curve with a large enough effect; inconclusive = small, poorly fitted or top-dose-only effect, or effect the other way, or another doubt; inactive = no such curve, though single readings can be large or run the other way. Potencies of inconclusive entries are left out as doubtful fits.
Assay: qHTS for induction of synthetic lethality in tumor cells producing 2HG: qHTS for the HT-1080-IDH1KD cell line;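 for activity, negative = toxicity: 0% = DMSO wells and -100% = cell-free medium wells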
Details: HT-1080 IDH1 knockdown viability, ATP luminescence, 48 h; activity, negative = toxicity: at 46.1 µM (top of the series) unless noted
How it was run: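 % activity derives from luminescence (CellTiter-Glo), normalised to DMSO and no-cell wells. HT-1080-IDH1KD cells, 750/well, had 48 h compound exposure at 37 °C.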
Potency is the fitted concentration of half-maximal effect; tags give direction and shape of the fitted curve.

Structure (SMILES) | activity, negative = toxicity | Potency
CSc1ncnc2c1ncn2CCCN1CCN(Cc2c(C)cc(C)cc2C)CC1 | inactive: -13.7% | –
CC(C)n1nnnc1SCC(=O)c1ccc2c(c1)OCCO2 | inactive: 25.4% | –
CC(C)CCn1c(O)c(N=NC(=O)c2ccco2)c2ccccc21 | inactive: 6.54% | –
Oc1c(CN2CCN(c3ccccn3)CC2)cc(Cl)c2cccnc12 | – | inconclusive [cytotoxic, partial curve]
COc1cccc(C2(c3cccc(OC)c3)CC2C(=O)Nc2ccccc2Cl)c1 (configuration not stated) | – | active: 20.6 µM
CCN(CC(=O)Nc1ccc(OC)cc1)C(=O)c1cc(-c2cccs2)nn1-c1ccccc1 | inactive: -16.5% | –
CCOc1ccc(N=Cc2c(C)[nH]n(-c3nc4ccccc4[nH]3)c2=O)cc1 | – | active: 3.66 µM
Oc1ccccc1OCc1nc2ccccc2s1 | inactive: -16.3% | –
C/C(=N\NC(=O)c1ccccc1-n1cccc1)c1ccccn1 | – | inconclusive [cytotoxic, full curve]
CN(CC(=O)Nc1ccccc1-c1ccccc1)Cc1ccccc1Cl | – | inconclusive [cytotoxic, single point]
Cc1c(C(=O)NN)[nH]c2ccc([N+](=O)[O-])cc12 | – | inconclusive [cytotoxic, full curve]
COc1cccc(C(=O)N/N=C/c2cn[nH]c2-c2ccc(OC)cc2OC)c1 | inactive: -1.01% | –
C=CC(=O)Nc1ccc(Nc2nc(NC3CCC(N(C)C)CC3)nc3c2ncn3C(C)C)cc1 (configuration not stated) | – | active: 2.31 µM
O=C(Nc1cccc(S(=O)(=O)Nc2ccc(Cl)cc2)c1)c1ccc(Cl)nc1 | – | inconclusive [cytotoxic, partial curve]
Cc1ccc(NC(=O)CCCc2c[nH]c3ccccc23)nc1 | – | inconclusive [cytotoxic, partial curve]
COc1ccc(Cl)cc1N(CC(=O)NC1CC2CCC1C2)S(=O)(=O)c1ccccc1 (configuration not stated) | – | inconclusive [cytotoxic, single point]
Oc1ccccc1-n1c(-c2ccccc2)ccc1-c1ccccc1 | – | inconclusive [cytotoxic, single point]
CCOC(=O)Cn1nnnc1C(C(C)C)N(Cc1cc2c(C)cc(C)cc2[nH]c1=O)C1CCCC1 (configuration not stated) | – | inconclusive [cytotoxic, single point]
C=CCN1CCc2c(cc(O)c(O)c2Br)[C@@H](c2ccccc2)C1 | – | inconclusive [cytotoxic, single point]
CCc1ccc(NC(=O)C(=O)NNC(=O)c2ccc(OC)cc2)cc1 | – | inconclusive [cytotoxic, single point]
COc1ccc(-c2cc(NC=O)c3ncc(-c4cccc(C(F)(F)F)c4)n3c2)c(OC)c1 | – | active: 13 µM
CCOC(=O)c1cnc2ccc(OCC)cc2c1N(C)Cc1ccccc1 | – | inconclusive [cytotoxic, single point]
Cn1c(COc2ccccc2)nnc1SCC(=O)Nc1nnc(C2CC2)s1 | inactive: 17.3% | –
O=C(NN1C(=O)/C(=C/c2ccc(O)cc2)SC1=S)c1ccccc1O | inactive: -4.79% | –

Structure (SMILES) | activity, negative = toxicity | Potency
CCC(C)(C)C1CCc2[nH]nc(C(=O)N/N=C(\C)c3ccco3)c2C1 (configuration not stated) | – | inconclusive [cytotoxic, single point]
CC(C)(C)C(=O)OCc1ccc(C2=CC(=O)CC(C)(C)C2=O)cc1 | inactive: -1.34% | –
O=C(NCc1ccco1)C1OCCc2ccccc21 (configuration not stated) | – | inconclusive [rising, partial curve]
Cc1cc(C)n(-c2nc(NCCN(C)C)c3c4c(sc3n2)COC(C)(C)C4)n1 | – | inconclusive [cytotoxic, single point]
Cc1ccc(Cl)cc1-c1cc(C(=O)NCc2ccc(C(F)(F)F)cc2)[nH]n1 | – | inconclusive [cytotoxic, single point]
O=C(Nc1ccc(F)cc1)Nc1ccc(Cl)cn1 | – | inconclusive [cytotoxic, single point]
COc1cc(C#Cc2c(-c3cncn3C)n(C)c3ccc(-c4cnc(N5CCOCC5)nc4)cc23)cc(OC)c1 | inactive: -4.91% | –
COc1ccc(CC(=O)Nc2ccc(-c3cn4ccc(C)cc4n3)cc2)cc1 | – | inconclusive [cytotoxic, partial curve]
Cn1c(C(=O)N[C@@H](C(=O)O)c2ccccc2)cc2cc(F)ccc21 | inactive: -4.42% | –
C=CCn1c(SCC(=O)Nc2ccccc2C)nc2sc(C)c(C)c2c1=O | inactive: -20.8% | –
Nc1nc2ncccc2cc1C(=O)NCCc1cccs1 | – | active: 14.6 µM
Cc1ccc(-c2ccc(CN3C(C(C)C)C(=O)N(Cc4cn(CC5CCCCC5)nn4)CCS3(=O)=O)cc2)cc1 (configuration not stated) | – | inconclusive [cytotoxic, single point]
CCCCCCNC(=O)O[C@H]1Cn2c(=O)n(CCCCCC)c(=O)n2[C@@H]2CN(S(=O)(=O)c3ccc(C)cc3)C[C@]12O | – | inconclusive [cytotoxic, single point]
COC(=O)c1ccc2c(=O)n(CCN3CCOCC3)c(SCC(=O)C(C)(C)C)nc2c1 | inactive: 13.7% | –
COc1ccc(CN2C(=O)C(Cc3ccccc3)Nc3ncnc(N4CCN(c5ccccc5)CC4)c32)cc1 (configuration not stated) | inactive: -7.19% | –
CCCNC(=S)Nc1ccc(Oc2ccccc2)cc1 | – | active: 14.1 µM
CC(=O)/C(N=Nc1ccc(C(=O)O)cc1[N+](=O)[O-])=C(\C)O | inactive: -3.37% | –
COc1cc(C(=O)N/N=C/C2CC=CCC2)cc(OC)c1OC (configuration not stated) | – | inconclusive [cytotoxic, single point]
CCc1ccc(/C=C2\SC(=S)N(CCCC(=O)N3CCN(C)CC3)C2=O)cc1 | – | inconclusive [cytotoxic, single point]
Nc1cc(S(=O)(=O)N2CCCCC2)ccc1Oc1ccccc1 | – | inconclusive [cytotoxic, single point]
CCC(C)[C@H](N)C(=O)N[C@H]1CCC2C3CC=C4C[C@@H](O)CC[C@]4(C)C3CC[C@@]21C (some centres not stated) | – | inconclusive [cytotoxic, single point]
COc1ccc(OC)c(-c2cc(C(=O)Nc3ccccc3C(N)=O)c3ccccc3n2)c1 | – | inconclusive [cytotoxic, partial curve]
O=C(CC1SC(=Nc2ccccc2)N(Cc2ccccn2)C1=O)Nc1cccc(Cl)c1 (configuration not stated) | – | inconclusive [cytotoxic, single point]
O=C(C1CCCN(c2ncnc3c2nc2n3CCCCC2)C1)N1CCN(c2ccc(Cl)cc2)CC1 (configuration not stated) | – | inconclusive [cytotoxic, single point]

Structure (SMILES) | activity, negative = toxicity | Potency
COc1cc(C2c3cc4c(cc3C(O)C3COCC23)OCO4)cc(OC)c1OC (configuration not stated) | – | inconclusive [cytotoxic, single point]
CC1=C(C)CS(=O)N(S(=O)(=O)c2ccc(Cl)cc2)C1 (configuration not stated) | – | inconclusive [cytotoxic, single point]
CCOc1ccc(S(=O)(=O)Nc2cc(S(=O)(=O)N3CCOCC3)ccc2OC)cc1 | inactive: 0% | –
COc1ccc(NC(=O)CSc2n[nH]c(-c3ccccn3)n2)cc1 | – | inconclusive [cytotoxic, single point]
Cc1sc2ncnc(N(C)C3CCCCC3)c2c1C | inactive: -17% | –
O=C(NNc1ccc(O)cc1)c1ccc(Br)cc1 | – | active: 4.11 µM
Cc1cc(N2CCN(C)CC2)nc2ccc(NC(=O)c3ccc(Br)o3)cc12 | – | inconclusive [cytotoxic, single point]
O=C(CN(Cc1ccco1)Cc1ccco1)Nc1cc(S(=O)(=O)N2CCCCC2)ccc1Cl | – | inconclusive [cytotoxic, single point]
COc1ccc(C2=Nn3c(nnc3-c3ccccc3)SC2)cc1OC | – | inconclusive [cytotoxic, full curve, poor fit]
CNC(=S)NNC(=O)c1ccccc1F | inactive: 22% | –
CC(C)(C)c1ccc(C(=O)N2CCC2(C)C(=O)NCc2cccc3ccccc23)cc1 (configuration not stated) | – | inconclusive [cytotoxic, single point]
COc1ccc(C(CCNCc2ccc(N(C)C)cc2)c2ccccc2)cc1 (configuration not stated) | – | inconclusive [cytotoxic, single point]
O=C1c2ccccc2C(=O)c2c1oc(C(F)(F)F)c2C(=O)c1ccccc1 | – | active: 23.1 µM
O=C(Nc1cccc(-n2cnnn2)c1)c1ccc(OC(F)(F)F)cc1 | inactive: 6.67% | –
O=C(C1CCN(S(=O)(=O)c2cccc3cccnc23)CC1)N1CCN(c2ccc(Cl)cc2)CC1 | inactive: -23.9% | –
CC(C)N(C(=O)CSc1nc2ccccc2n1Cc1ccc(F)cc1)C(C)C | – | inconclusive [cytotoxic, single point]
CC1(C(=O)Nc2ccc3ccccc3c2)CCC(=O)N1C1CCN(Cc2ccccc2)CC1 (configuration not stated) | – | inconclusive [cytotoxic, single point]
O=C(N/N=C/c1c(O)ccc2ccccc12)c1ccc(Br)o1 | – | active: 5.8 µM
COc1cccc(-c2ccc(NC(=O)C3CCCN(Cc4cnn(C)c4C)C3)cc2)c1 (configuration not stated) | – | inconclusive [cytotoxic, single point]
Cc1cc(C)c(S(=O)(=O)/N=C2\C=CC(=O)C(Cl)=C2)c(C)c1 | inactive: -17.1% | –
COc1ccccc1N1CCN(S(=O)(=O)CCNC(=O)c2cccs2)CC1 | inactive: 0.467% | –
COc1ccccc1NS(=O)(=O)c1cccc(NC(=O)Nc2ccc(Cl)cc2)c1 | – | active: 18.4 µM
CC1(C)Cc2ccccc2/C(=C/C(=O)N2CCCCCC2)N1 | – | inconclusive [cytotoxic, single point]
COc1ccc(-n2c(SC(CN3CCCCC3)CN3CCCC3=O)nc3ccccc3c2=O)cc1 (configuration not stated) | inactive: -11.1% | –

Reference: PubChem BioAssay AID686971 (National Center for Advancing Translational Sciences (NCATS), 2013)
